From article PMC4336329 (PLoS ONE, 2015)
The whole screen tested about 310,000 compounds, of which about 2,200 (0.71%) showed an effect of 50% or more. The effect is printed as a negative number. This is one part of the list.

Each compound was assayed against human ether-à-go-go-related gene (hERG) potassium channel (human, UniProt Q12809) (assay: primary screen, population patch clamp on CHO cells stably expressing hERG).
Chain of human ether-à-go-go-related gene (hERG) potassium channel (Q12809 whole entry, looked up): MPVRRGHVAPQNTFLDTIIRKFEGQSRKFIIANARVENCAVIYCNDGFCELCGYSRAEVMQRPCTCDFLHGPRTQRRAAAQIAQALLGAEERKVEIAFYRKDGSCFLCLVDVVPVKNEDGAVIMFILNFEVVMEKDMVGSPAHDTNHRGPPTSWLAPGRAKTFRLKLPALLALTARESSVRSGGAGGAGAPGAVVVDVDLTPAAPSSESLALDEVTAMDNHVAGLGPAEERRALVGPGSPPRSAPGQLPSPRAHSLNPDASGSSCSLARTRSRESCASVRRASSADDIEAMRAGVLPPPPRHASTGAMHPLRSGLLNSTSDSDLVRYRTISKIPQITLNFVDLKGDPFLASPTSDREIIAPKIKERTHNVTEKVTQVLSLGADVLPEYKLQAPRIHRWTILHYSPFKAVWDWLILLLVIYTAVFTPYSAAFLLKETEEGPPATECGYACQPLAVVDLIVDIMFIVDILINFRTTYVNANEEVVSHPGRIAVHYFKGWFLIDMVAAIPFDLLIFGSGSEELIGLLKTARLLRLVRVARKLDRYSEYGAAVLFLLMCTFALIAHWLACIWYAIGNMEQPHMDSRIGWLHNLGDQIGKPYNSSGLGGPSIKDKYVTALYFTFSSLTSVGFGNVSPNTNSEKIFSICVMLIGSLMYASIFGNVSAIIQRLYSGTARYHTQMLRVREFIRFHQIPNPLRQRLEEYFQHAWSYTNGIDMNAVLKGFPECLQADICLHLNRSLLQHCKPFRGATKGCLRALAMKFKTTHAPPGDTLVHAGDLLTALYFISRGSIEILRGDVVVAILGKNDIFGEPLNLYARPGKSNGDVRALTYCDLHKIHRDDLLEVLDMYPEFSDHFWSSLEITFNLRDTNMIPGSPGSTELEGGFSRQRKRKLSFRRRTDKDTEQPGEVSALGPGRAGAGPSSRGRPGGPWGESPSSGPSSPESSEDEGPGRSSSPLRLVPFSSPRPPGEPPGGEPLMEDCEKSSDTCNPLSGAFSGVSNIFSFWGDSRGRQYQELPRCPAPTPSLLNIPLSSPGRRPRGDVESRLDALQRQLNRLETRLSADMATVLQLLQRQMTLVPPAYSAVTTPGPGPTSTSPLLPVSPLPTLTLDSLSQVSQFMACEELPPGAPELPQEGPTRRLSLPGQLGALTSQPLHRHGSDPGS

Row | SMILES | hERG current change (%, negative = inhibition) at 1uM [%]
1 | NNC(=O)c1cc2cc(Oc3ccccc3)ccc2[nH]1 | 14.2
2 | COc1ccc(S(=O)(=O)Nc2ccc(S(=O)(=O)N3CCCCC3)cc2)cc1 | 4.23
3 | Cc1ccc(Nc2nc(CSc3nnnn3-c3ccccc3)cs2)cc1 | 10.2
4 | Cc1ccc(-c2nc(CS(=O)CC(=O)N3CCN(c4ncccn4)CC3)c(C)o2)cc1 (centres unmarked) | -23.6
5 | Cc1ccc(C(=O)c2ccc([N+](=O)[O-])cc2)cc1 | 14.2
6 | CCC(C)NCCCOc1c(C)cc(C)cc1Br.O=C(O)C(=O)O (centres unmarked) | 2.26
7 | CC(C)CCN1CCN(C2CCN(c3ccc4c(c3)OCO4)CC2)CC1CCO (centres unmarked) | 3.4
8 | Cc1cccc(Nc2nnc(SC3CCOC3=O)s2)c1C (centres unmarked) | 9.16
9 | CC(=O)c1cccc(NC(=O)Nc2csc3c2CCCC3)c1 | 7.58
10 | CCC(CC)NC(=O)COC(=O)c1cc(Br)ccc1Cl | 12.5
11 | CC(=O)N1CCN(C(=S)Nc2ccc(SC(F)F)cc2)CC1 | -7.06
12 | CCOc1cc(NC(=S)NCCCN2CCOCC2)c(OCC)cc1NC(=O)C1CC1 | 6.18
13 | COc1ccc(CNC(=O)CSc2nnc(-c3cccnc3)n2N)cc1 | 7.27
14 | COC(=O)[C@@H]1C[C@@]2(O)[C@@H](O)[C@@H](O)[C@@H](O)C[C@H]2N1Cc1cc(OC)cc(OC)c1 | 16.9
15 | Oc1c(Cl)cc(Cl)cc1C=Nc1cc(C(F)(F)F)ccc1N1CCc2ccccc2C1 | 8.02
16 | COc1cccc(CC2(CO)CCCN(Cc3ccc(CN4CCCCC4)s3)C2)c1 (centres unmarked) | 0.717
17 | CCOC(=O)c1ccc(COC(=O)CNS(=O)(=O)c2ccccc2)cc1 | 16.8
18 | COc1ccc(S(=O)CC(=O)Nc2ccccc2Cl)cc1 (centres unmarked) | 13.4
19 | CC(Cc1ccccc1)C(=O)N(C)Cc1cccnc1 (centres unmarked) | 15.3
20 | Cc1ccc(N=C2C(=O)Nc3ccccc32)c(C)c1 | 13
21 | CCN(CC)CCN1C(=O)c2ccccc2NC1c1ccc(N(C)C)cc1 (centres unmarked) | -13.4
22 | COc1ccc(C)cc1NC(=O)C(OC(=O)Cn1cnc2c1c(=O)n(C)c(=O)n2C)c1ccccc1 (centres unmarked) | 13.6

Row | SMILES | hERG current change (%, negative = inhibition) at 1uM [%]
23 | CCOc1ccc(NC(=O)CCn2nc(C)c(S(=O)(=O)N3CCCCC3)c2C)cc1 | 5.33
24 | CN1CCN(c2cc(=O)n(-c3ccc(Cl)cc3)c(=O)[nH]2)CC1 | 3.27
25 | O=C(O)c1ccc(/C=N/O)cc1 | 2.62
26 | Cc1ccc(C(=O)/C=C/c2ccc(-c3ccccc3[N+](=O)[O-])o2)cc1 | 12.8
27 | CS(=O)(=O)c1ccc2nc(NC(=O)c3cccc(NS(=O)(=O)c4ccc(F)c(F)c4)c3)sc2c1 | 1.19
28 | CCOC(=O)c1c(C)n(OC)c2ccc3c(no[n+]3[O-])c12 | 7.58
29 | Cc1ccc(C2(C)NC(=O)N(CC(=O)NCc3cccc(Cl)c3)C2=O)cc1 (centres unmarked) | 10.7
30 | COCCNC(=S)N(CCc1c(C)[nH]c2ccc(C)cc12)Cc1cccnc1 | 9.67
31 | CCN(C(=O)COC(=O)c1cccc(S(=O)(=O)N(CC)CC)c1)C1CCS(=O)(=O)C1 (centres unmarked) | 17.4
32 | C=CCOn1c(=O)c(C)[n+]([O-])c2ccccc21 | 8.03
33 | CC(OC(=O)Cn1[nH]c(=O)c2ccccc2c1=O)C(=O)Nc1ccccc1[N+](=O)[O-] (centres unmarked) | 9.65
34 | O=C(Cn1nnc2ccccc21)c1ccc([N+](=O)[O-])cc1 | 0.57
35 | CCOc1ccc(C(=O)N2CCN(c3cnn(-c4ccccc4)c(=O)c3Cl)CC2)cc1 | -45.9
36 | O=C1C=C(c2ccccc2)C(=O)N1Nc1ccccc1 | -41.1
37 | O=C(c1cc(F)c(F)cc1Cl)N1CCCCC1 | -8.21
38 | Cc1ccc(O)c(Nc2ncnc3ccc([N+](=O)[O-])cc23)c1.Cl | 17.9
39 | O=C(Nc1ccc(Cl)cc1)C1CCN(C(=O)NC2CCCCC2)CC1 | -0.257
40 | O=C(C1CCN(c2ccc(N3CCOCC3)nn2)CC1)N1CCc2ccccc2C1 | -6.52
41 | O=C(Nc1ccccc1N1CCCC1)c1cccc(F)c1 | 10.3
42 | CS(=O)(=O)N(CCc1ccccc1)CC(=O)N1CCN(c2ccccc2F)CC1 | 5.48
43 | COc1cc(/C=C(\C#N)C(=O)N2CCc3ccccc32)ccc1O | -2.09
44 | CC1=CC2=NC(=O)CC(C)(C(=O)N(CC(=O)NC(C)(C)C)Cc3ccccc3)N2C=C1 (centres unmarked) | 12.8
